According to PMC4336329 (PLoS ONE, 2015):
The whole screen tested about 310,000 compounds, of which about 14,000 (4.5%) showed an effect of 50% or more. The effect is printed as a negative number. Some of the results follow.

molecular target: human ether-à-go-go-related gene (hERG) potassium channel (human, UniProt Q12809); assay: primary screen, population patch clamp on CHO cells stably expressing hERG
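Also: peak tail current of the secondary pulse compared with the same well before compound.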

human ether-à-go-go-related gene (hERG) potassium channel, sequence (Q12809 whole entry, looked up): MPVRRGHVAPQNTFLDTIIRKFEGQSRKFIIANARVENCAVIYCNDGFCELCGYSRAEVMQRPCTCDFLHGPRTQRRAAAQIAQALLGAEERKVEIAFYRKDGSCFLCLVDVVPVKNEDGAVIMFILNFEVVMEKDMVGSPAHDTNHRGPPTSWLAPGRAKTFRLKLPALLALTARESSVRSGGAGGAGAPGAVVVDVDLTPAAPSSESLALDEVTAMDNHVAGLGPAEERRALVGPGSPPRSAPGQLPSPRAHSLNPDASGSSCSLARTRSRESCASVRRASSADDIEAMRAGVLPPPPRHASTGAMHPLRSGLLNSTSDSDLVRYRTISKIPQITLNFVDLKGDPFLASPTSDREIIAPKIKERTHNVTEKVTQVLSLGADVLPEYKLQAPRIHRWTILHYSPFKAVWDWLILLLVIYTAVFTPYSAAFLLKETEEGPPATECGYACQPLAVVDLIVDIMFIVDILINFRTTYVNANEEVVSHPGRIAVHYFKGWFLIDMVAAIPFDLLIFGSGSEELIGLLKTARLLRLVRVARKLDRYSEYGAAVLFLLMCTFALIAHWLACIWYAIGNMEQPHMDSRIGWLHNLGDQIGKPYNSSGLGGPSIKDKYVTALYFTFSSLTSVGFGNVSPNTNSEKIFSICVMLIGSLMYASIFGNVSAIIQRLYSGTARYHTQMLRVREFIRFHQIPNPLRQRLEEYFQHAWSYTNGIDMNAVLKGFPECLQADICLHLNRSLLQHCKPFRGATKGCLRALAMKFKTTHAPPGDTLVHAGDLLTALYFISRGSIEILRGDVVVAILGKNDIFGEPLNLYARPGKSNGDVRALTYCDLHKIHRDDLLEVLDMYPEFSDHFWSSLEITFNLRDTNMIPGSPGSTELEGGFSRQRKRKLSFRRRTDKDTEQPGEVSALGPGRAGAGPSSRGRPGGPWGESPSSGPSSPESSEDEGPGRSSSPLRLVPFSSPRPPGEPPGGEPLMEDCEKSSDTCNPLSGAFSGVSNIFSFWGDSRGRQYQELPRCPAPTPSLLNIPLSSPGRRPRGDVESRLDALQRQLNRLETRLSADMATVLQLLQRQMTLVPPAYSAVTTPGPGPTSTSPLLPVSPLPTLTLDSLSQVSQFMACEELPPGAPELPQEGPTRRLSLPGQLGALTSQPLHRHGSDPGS

| SMILES | hERG current change (%, negative = inhibition) at 10uM |
| --- | --- |
| Cn1c(=O)c2[nH]c(SCc3ccccn3)nc2n(C)c1=S | -7.36% |
| O=C(NCCC(=O)N1CCCCC1)c1ccc(Br)cc1 | 8.63% |
| COc1cc(OC)cc(C(=O)N[C@H](C(=O)OCn2nnc3ccccc3c2=O)C(C)C)c1 | -13.3% |
| O=S(=O)(c1ccc(S(=O)(=O)N2CCCC3(CCCCC3)C2)cc1)N1CCCCC1 | -4.93% |
| CC1(C)CNC(=O)c2sc(NC(=O)CN3CCOCC3)nc2C1 | -6.74% |
| O=C(NC1CC1)C1CCN(C(=O)c2ccc(Cl)cc2)CC1 | 19.8% |
| CC1CCN(C(=O)CCc2nnc3ccc(NCc4ccco4)nn23)CC1 | 0.306% |
| C=CCOc1ccc(CNn2nnnc2N)cc1 | 18.6% |
| CCN1CCN(c2nc(-c3ccc(F)cc3)cc(=O)[nH]2)CC1 | -3.45% |
| Cc1ccc(S(=O)(=O)c2c(COC(=O)c3ccc(Cl)cc3)c(-c3ccccc3)nn2C)cc1 | -3.18% |
| NC(=O)c1ccccc1NC(=O)CCc1ccccc1 | 6% |
| COc1ccc(N2CC(C(=O)Nc3ccccc3C(=O)NC3CC3)CC2=O)cc1 (stereo not drawn) | -38.8% |
| Cc1cc(C)c(OCC(=O)NCC(c2ccco2)N2CCCCC2)c(C)c1 (stereo not drawn) | -52.1% |
| N#Cc1ncc(-c2ccc3c(c2)OCCOCCOCCOCCOCCO3)nc1C#N | -75.3% |
| CCc1ccc(O)c(N=Cc2cccc(C)c2O)c1 | 10.5% |
| CCc1ccccc1NC(=O)c1ccc(CN2CCC(Cc3ccccc3)CC2)cc1 | -50.8% |
| Cc1ccccc1C(=O)Nc1cc(-c2cc(C(C)(C)C)oc2C)nn1C | 9.21% |
| [O-]/C(=C(\C(=S)Nc1ccc(SC(F)F)cc1)[n+]1ccccc1)c1ccc(Cl)cc1Cl | -5.18% |
| CCCC(NC(=O)COc1cc2c(c3oc(=O)cc(C)c13)CCC(C)(C)O2)C(=O)O (stereo not drawn) | 18.4% |

| SMILES | hERG current change (%, negative = inhibition) at 10uM |
| --- | --- |
| COc1cc(/C=N\NC(=O)c2ccc(-c3ccccc3)cc2)cc(OC)c1OC(C)=O | 6.49% |
| Cn1c(NC(=O)c2ccc(F)cc2)c(-c2ccccn2)c(=O)c2ccccc21 | 24.7% |
| CC(CCc1ccccc1)NC(=O)C(Cc1ccccc1)NC(N)=O (stereo not drawn) | 20.2% |
| CCc1ccc(OCC(O)CNC(C)(C)C)cc1.Cl (stereo not drawn) | -4.05% |
| Cc1ccc(S(=O)(=O)N2CCN(C(=O)c3n[nH]c(=O)c4ccccc34)CC2)c(C)c1 | -30% |
| COc1ccc(OC)c(-c2csc(NC(=O)Cc3cccs3)n2)c1 | 10.5% |
| Cc1ccc(S(=O)(=O)/N=C(/c2ccccc2)N2CCOCC2)cc1 | 14.2% |
| Cl.Clc1ccccc1/C=N/N1CCN(Cc2ccccc2)CC1 | 2.24% |
| CC(=O)Nc1ccc(Oc2cc(C#N)c(C#N)cc2N2CCCCCC2)cc1 | -26.5% |
| COc1ccccc1N1CCN(S(=O)(=O)/C=C/c2ccccc2)CC1 | -11.3% |
| O=C1CC(NC(=O)C(F)(F)F)=NN1c1ccccc1 | 7.57% |
| Cc1ccc(C)n1NC(=O)c1ccc([N+](=O)[O-])cc1 | -10.3% |
| O=C(N/N=C/c1cc(Cl)ccc1O)c1ccncc1 | -13.6% |
| COc1cc(C)c(CN2CCN(CC(=O)Nc3ccccc3C(=O)NC3CC3)CC2)cc1OC | -80.1% |
| Cc1ccc(S(=O)(=O)N(CC(=O)N/N=C/c2cccc(C)c2)c2cccc3cccnc23)cc1 | 12.6% |
| CCOc1cc(/C=C(/C#N)c2ccc(F)cc2)ccc1OCc1ccc(C(=O)O)o1 | 6.19% |
| Cc1cccc(NCc2nc3ccccc3n2C)c1 | -6.06% |
| N#Cc1nc(-c2ccc(Cl)cc2)oc1NCCc1ccccn1 | -3.05% |
| Cc1ccc(-c2nc3c(c(=O)[nH]c(=O)n3Cc3ccccc3)n2C)s1 | 2.88% |

| SMILES | hERG current change (%, negative = inhibition) at 10uM |
| --- | --- |
| O=[N+]([O-])c1ccccc1/C=C\C=N\N1CCN(c2ccccc2)CC1 | -9.57% |
| COc1ccc(CNC(=O)CN(Cc2ccccc2)S(=O)(=O)c2ccc(Cl)cc2)cc1 | -61.7% |
| CCOc1ccc(-c2cn(CCC#N)cn2)cc1 | 13.8% |
| COc1cc(C(=O)N/N=C(\C)c2ccc3c(c2)OCO3)cc(OC)c1OC | 2.14% |
| CC(=O)Nc1ccc(S(=O)(=O)N(CC(=O)Nc2cc(C)on2)Cc2ccc(F)cc2)cc1 | -11.5% |
| Cc1cc(C(=O)COC(=O)c2n[nH]c3ccccc23)c(C)n1C | 1.08% |
| CCOC(=O)c1c(NC(=O)c2ccc(Br)o2)sc2c1CCCC2 | -9.78% |
| CC1CCN(C(=S)NC(=O)c2cccs2)CC1 | 9.34% |
| O=C1N=c2ccccc2=C/C1=C\c1c(O)[nH]c(=S)[nH]c1=O | 13.1% |
| CN(C)/C=C1\C(=O)Oc2ccccc2C1=O | 18.3% |
| O=C(Cc1ccccc1)NCCCN1CCN(CCCNC(=O)Cc2ccccc2)CC1 | 3.92% |
| CCOC(=O)C1(Cc2cccc(Cl)c2)CCCN(C(=O)c2ccnn2C)C1 (stereo not drawn) | -11.9% |
| CN(C)CCP(=O)(c1ccccc1)c1ccccc1 | 13.4% |
| O=C(N=C1SC2CS(=O)(=O)CC2N1c1ccc(F)cc1)C1CC1 (stereo not drawn) | 11.5% |
| CCCCN(CCCC)S(=O)(=O)c1ccc(NC(=O)CN2CCOCC2)cc1 | -53.6% |
| O=C(COc1ccc(Br)cc1CO)N1CCCc2ccccc21 | 3.43% |
| CN(CC(=O)OCC(=O)NCC(F)(F)F)S(=O)(=O)c1ccc(Cl)cc1 | -5.32% |
| N#CCSc1nnc(-c2sc3ccccc3c2Cl)o1 | -0.209% |
| Cc1ccc2c(c1)c1c(n2CC(O)Cn2nc(C)c(Br)c2C)CCCC1 (stereo not drawn) | 9.72% |
